About 800 (1.6%) of roughly 50,000 compounds showed an effect of 50% or more. Some of the results follow.

In the assay the target is Bcl-2-like protein 10 (Homo sapiens) (UniProt Q9HD36). The assay can be described thus: Phenotype converters, Bcl-B/TR3 peptide binding displacement, primary biochemical FP (AID 1240).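 Note: 0% = Bcl-B with tracer peptide and DMSO and 100% = tracer peptide lacking Bcl-B.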 To be noted: GST-Bcl-B / FITC-TR3 peptide fluorescence polarization; stronger effect = higher value; compound at 3.75 mg/L.
UniProt Q9HD36, sequence (Q9HD36 whole entry, looked up): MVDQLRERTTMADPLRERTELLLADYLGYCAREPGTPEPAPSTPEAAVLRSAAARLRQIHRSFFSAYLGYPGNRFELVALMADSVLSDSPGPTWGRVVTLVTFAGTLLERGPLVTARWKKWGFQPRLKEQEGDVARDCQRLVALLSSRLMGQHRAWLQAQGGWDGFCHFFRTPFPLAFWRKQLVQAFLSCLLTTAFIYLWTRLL
In the case of `O=C(CSc1ncn[nH]1)n1c2ccccc2c2ccccc21`, the displacement is -11.1%.
In the case of `COc1cccc(C(=O)NNC(=O)c2ccc(OC)cc2OC)c1` it was 21.4%; in that of `O=[N+]([O-])c1ccc(O)c(/C=N/Nc2nnc3c(n2)[nH]c2ccccc23)c1`, 47.9%.
Consider `O=C(CCNc1n[nH]c(=O)[nH]c1=O)N/N=C/c1ccc(C(F)(F)F)cc1`, for which the displacement is -11%.
Take `COc1ccc(NC(=O)c2ccc(C)c([N+](=O)[O-])c2)cc1OC`: the displacement was -2.2%.
To `COc1ccccc1-c1coc2cc(OC(=O)c3c(Cl)ccc(Cl)c3OC)ccc2c1=O` belongs 10.5%; to `CC(=O)Oc1cc(OC(C)=O)c2c(C)cc(=O)oc2c1`, -2.5%; to `O=C(Nc1cc([N+](=O)[O-])ccc1F)c1ccccc1Br`, 13.9%.
For the compound `O=C(CN1C(=O)c2ccccc2C1=O)Nc1cc(Cl)ccc1C(=O)O`, the displacement was -6.4%.
As to `O=C(NC(=S)Nc1cccc2ccccc12)c1ccc(Cl)cc1`, the displacement was -5.1%.
`O=C(c1ccc(F)cc1)N(Cc1ccccc1)c1cccc([N+](=O)[O-])c1`: the displacement turned out to be 0.4%.
To `O=C1/C(=C/c2ccco2)N2CCC1CC2` belongs 26.9%.
To `CCOC(=O)/C(C(=O)Nc1ccc(Br)cc1)=C1\NC(C)(C)Cc2ccccc21` belongs 4.9%; to `Cc1ccccc1NCC(=O)N/N=C\c1ccc(I)o1`, 2.8%; to `CCN(CC)c1ccc(C(=O)Nc2ccccc2Cl)cc1`, 14.9%.
In the case of `O=C(O)C1C2C=CC(C3CC23)C1C(=O)Nc1cccc(Br)c1` (stereo unspecified) it was -6.5%.
Turning to `COc1c(Cl)cc(C(=O)Nc2ccc(N3CCOCC3)cc2)cc1Cl`, the displacement came to 17%.
In the case of `CCOC(=O)C1=C(Nc2ccc(Br)cc2)CC(C)(O)C(C(=O)OCC)C1c1ccccc1` (stereo unspecified) it was 2.3%.
In the case of `CCCN1c2ccccc2C(=C2SC(C(=O)OC)=C(C(=O)OC)S2)C(=S)C1(C)C` it was 16.5%; in that of `Cc1cc(=O)oc2cc(OCC(=O)c3ccc(-c4ccccc4)cc3)ccc12`, -5.9%; in that of `Cc1ccc(S(=O)(=O)Nc2ccc(Oc3ccccc3)cc2)cc1[N+](=O)[O-]`, 18.6%.
To `O=C(COc1ccc(Cl)cc1Br)NNC(=O)c1ccc(-c2ccccc2)cc1` belongs -4%; to `Ic1cccc(/C=N/n2cnnc2)c1`, 8.6%.
With `C=CCOc1cccc(/C=C/C(=O)c2ccc(C)cc2)c1`, the displacement is -5.7%.
To `COC(=O)c1ccc(C(=O)OC)c(NC(=O)Cc2ccc(Cl)cc2)c1` belongs 1.3%; to `Cc1cc(Br)ccc1N1C(=O)c2ccc(-c3nc4ccccc4c(=O)o3)cc2C1=O`, 8.4%; to `CN(C)c1ccc(/C=C2/SC(=S)N(Cc3ccccc3)C2=O)cc1`, -15.3%.
In the case of `COc1cc(C(=O)NCCC(C)C)c([N+](=O)[O-])cc1OC` it was 13.8%.
In the case of `CCOC(=O)c1c(NC(=O)C2CCCCC2)sc(C(=O)N(CC)CC)c1C` it was 1.4%.
In the case of `Cc1ccsc1-c1ncnn1-c1sc2c(c1C#N)CCCC2`, the displacement amounted to 10.9%.
To `CCN(CC)c1ccc(N2C(=O)/C(=C\c3cccs3)SC2=S)cc1` belongs 3.4%; to `Cc1cc(OCC(=O)NCc2ccc3c(c2)OCO3)cc(C)c1Cl`, -9.9%.
In the case of `C=CCNC(=O)C1CC(=O)N(c2ccc(Br)cc2)C1` (stereo unspecified) it was -7.8%; in that of `COc1ccc(C(O)(C(=O)NCc2ccccc2)c2ccc(OC)cc2)cc1`, 1.8%.
To `CCN(CC)C(=O)Nc1ccc(Cl)cc1` belongs 2.7%.
Consider `Cc1csc(NC(=O)c2ccco2)n1`, for which the displacement is 9.1%.
In the case of `O=C(NNC(=O)c1sc2ccccc2c1Cl)Nc1ccc(Cl)cc1` it was 7.9%; in that of `CCCc1ccc(OCCNC(=O)c2ccc(C)cc2)cc1`, 1.8%; in that of `O=C(CN1C(=O)c2ccccc2C1=O)Nc1cccc2c1C(=O)N(c1ccccc1)C2=O`, -6%.
For `CC(C)CN1C(=O)/C(=C/c2cccc(Br)c2)SC1=S`, the displacement worked out at 9.3%.
In the case of `COc1ccc(C(=O)NC(Nc2ccccc2)C(Cl)(Cl)Cl)cc1OC` (stereo unspecified) it was 0.3%; in that of `CN(C)Cn1c(O)c(N=NC(=O)c2cccnc2)c2cc(Br)ccc21`, -5.5%; in that of `COc1ccc2nc(SCC(=O)Nc3ccc(F)cc3)[nH]c2c1`, -8.9%.
In the case of `O=C1C=C(NCc2ccco2)C2(CCCCC2)O1` it was 10.6%; in that of `Cc1ccc(-c2cc(-c3ccccc3O)[nH]n2)cc1`, -11.4%; in that of `Cc1ccc(N2C(=O)NC(=O)/C(=C\c3cc(C)n(C)c3C)C2=O)cc1`, 12.6%.
To `CCCC1CCc2c(sc(NC(=O)C3c4ccccc4Oc4ccccc43)c2C(N)=O)C1` (stereo unspecified) belongs -1.1%.
Turning to `COc1cc(N2Cc3ccc(OC)c(OC)c3C2=O)cc(OC)c1OC`, the displacement worked out at 0.1%.
In the case of `Cc1ccc(-c2ccc(C(=O)Nc3ccc([N+](=O)[O-])cc3C)o2)cc1Cl` it was 0.4%; in that of `COCCOC(=O)c1c(C)oc2c1cc(NS(=O)(=O)c1ccc(F)cc1)c1ccccc12`, 18%.
To `O=C(c1coc2ccc(O)c(CN3CCCCC3)c12)C1CC1` belongs 11%; to `CC(C)=C1C2CCC1C(C(=O)NC1CCCCC1)C2C(=O)O` (stereo unspecified), -8.3%; to `COc1ccc(N(CC(=O)N/N=C\c2ccccc2O)S(=O)(=O)c2ccc(C)c([N+](=O)[O-])c2)cc1`, -4%.
To `CCOc1ccccc1N(CC(=O)NCCCOC)S(=O)(=O)c1ccccc1` belongs 2.9%.
For `O=C(c1cccnc1)N(Cc1ccccc1)Cc1ccccc1`, the displacement was 6%.
Turning to `O=[N+]([O-])c1ccc(-c2nc(NCc3ccccc3)cc(-c3ccccc3)n2)cc1`, the displacement was 7%.
In the case of `CCOc1ccc2nc(SCCNS(=O)(=O)c3ccccc3)sc2c1` it was -8.7%; in that of `CCN(CC)c1ccc(NC(=O)/C=C/c2cc(Br)ccc2OC)cc1`, 12.9%.
In the case of `COc1ccc(C(=O)CSc2nc3ccc([N+](=O)[O-])cc3[nH]2)cc1` it was 13.2%; in that of `Cc1ccc(NC(=O)c2ccccc2NC(=O)Cc2cccs2)cc1C`, 3.4%; in that of `O=C(CCCN1CCN2CCCC2C1)c1ccc(F)cc1` (stereo unspecified), -8%.
In the case of `CC1(C)Cc2c(sc3ncn4nc(-c5ccncc5)nc4c23)C(C)(C)N1` it was -5.9%; in that of `COc1cc2ccccc2cc1C(=O)Nc1ccc(Br)cn1`, -5.1%; in that of `NC(=O)c1cccc2c1-c1ccccc1/C2=N/NC(N)=S`, 8.5%.
As for `COc1ccccc1N1CCN(/N=C/c2ccc(C(F)(F)F)cc2)CC1`, the displacement was -3.5%.
To `COc1ccccc1NC(=O)COc1ccc(C)cc1C` belongs 6.4%; to `O=C(O)c1ccc(-c2cccc(Br)c2)o1`, -2.9%.
In the case of `Nc1nonc1-n1nnc(CN2CCCCCC2)c1CN1CCCCCC1` it was 5%.
To `CC(Oc1ccc(Cl)cc1Cl)C(=O)Nc1ccc2c(c1)OCO2` (stereo unspecified) belongs -8.4%.
On to `COC(=O)c1c(N)sc(C)c1-c1ccc(Cl)cc1Cl`, for which the displacement is -5.8%.
To `O=C1NC(=Nc2ccccc2)S/C1=C/c1ccsc1` belongs 1.2%.
